Laboratory results reported in PubChem BioAssay AID504706 (National Center for Advancing Translational Sciences (NCATS), 2011).
Among all 320,000 compounds or so, about 200 (0.062%) were called active. The inconclusive results got no clear call from the source; some entries with a clear call stand among them for comparison. Calls come from the whole dose curve; as a rule, active = well fitted activation curve with a large enough effect; inconclusive = small, poorly fitted or top-dose-only effect; inactive = no such curve, though single readings can be large or run the other way. Potencies of inconclusive entries are left out as doubtful fits.

test: qHTS assay for re-activators of p53 using a Luc reporter; settings: H1299 p53-A138V BP100-luciferase reporter, luminescence, 24 h; series mostly up to 92.2 µM; note: nearly all actives have a fitted effect of over 45% in size
Summary of the method: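 p53-null H1299 cells stably carrying temperature-sensitive p53-A138V and a BP100-luciferase reporter were pinned with compounds (4-point, 1:5 series) and held 24 hrs at 37 deg C. Luminescence was read 10 min after detection reagent.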
Potency is the fitted concentration of half-maximal effect; tags give direction and shape of the fitted curve.

| SMILES | Potency |
| --- | --- |
| CC1=CSC2=NC(=O)/C(=C\c3cccn3-c3ccc([N+](=O)[O-])cc3)C(=N)N12 | inactive |
| CC(=O)N1c2ccccc2C(=O)C1N(C)c1ccc(C)cc1 (centres undefined) | inconclusive [activator, partial curve] |
| Cc1ccccc1C(=O)NNC(=O)c1ccc(Br)cc1 | inconclusive [activator, partial curve, poor fit] |
| COc1ccccc1NC(=O)c1coc(=O)c(Br)c1 | inconclusive [activator, full curve, poor fit] |
| COc1ccc(/C=C2\SC(=S)N(CCC(=O)NCCCN3CCOCC3)C2=O)cc1 | inconclusive [activator, full curve] |
| COc1ccccc1C(=O)COC(=O)c1ccc(N(C)C)cc1 | inconclusive [activator, partial curve, poor fit] |
| Cc1ccc(C(=O)CSc2cnc3ccccc3n2)cc1C | inconclusive [activator, partial curve, poor fit] |
| COc1cc(/C=C/c2ccc3cccc(O)c3n2)cc(Br)c1OC | inconclusive [activator, partial curve, poor fit] |
| CCOC(=O)c1ccc(NC(=O)N2CCN(CCc3ccccc3)CC2)cc1 | inconclusive [activator, single point] |
| CCc1cc(C(=O)Nc2nc(-c3ccccn3)cs2)sc1C | inactive |
| O=C(c1ccccc1)c1coc2ccc(O)c(Cl)c12 | inconclusive [activator, full curve, poor fit] |
| CN(CCC#N)S(=O)(=O)c1ccc2[nH]cc(C(=O)NCCc3ccccc3)c(=O)c2c1 | inactive |
| Cc1ccc(/C=N/N=C/c2ccc(C)s2)s1 | inconclusive [activator, partial curve, poor fit] |
| COc1cc(NC(=O)COc2cccc3c2OC(C)(C)C3)cc(OC)c1OC | inactive |
| O=C(Nc1ccc(N2CCOCC2)cc1)c1ccc(Cl)cc1N1CCCC1=O | inconclusive [activator, single point] |
| Cc1onc(-c2c(Cl)cccc2Cl)c1C(O)c1ccccc1 (centres undefined) | inactive |
| C=CCCN(C(CC(C)C)C(=O)OC)S(=O)(=O)c1cc(Br)ccc1Br (centres undefined) | inactive |
| CN(C)CCN(C(=O)c1cccc(N2C(=O)CCC2=O)c1)c1nc2ccc(Br)cc2s1 | inconclusive [activator, partial curve, poor fit] |
| O=c1ccc(N=Nc2ccccc2)ccc1O | inconclusive [activator, partial curve, poor fit] |
| CN1CCN(NC(=O)/C=C/c2ccc(Br)cc2)CC1 | inconclusive [activator, single point] |
| O=S1(=O)C=C(SCCN2CCCCC2)c2ccccc21 | inconclusive [activator, partial curve, poor fit] |
| O=C(NCc1ccccc1Cl)c1ccc2ccccc2n1 | inconclusive [activator, full curve, poor fit] |

| SMILES | Potency |
| --- | --- |
| CC(C)CC(NC(=O)c1ccco1)C(=O)Nc1ccc2c(c1)OCCO2 (centres undefined) | inconclusive [activator, partial curve, poor fit] |
| O=C(/C=C/c1nc2ccccc2s1)N1CCCCCC1 | inconclusive [activator, partial curve, poor fit] |
| O=C1c2ccccc2NC(c2ccc(-c3cccc(F)c3)o2)N1O (centres undefined) | inconclusive [activator, partial curve, poor fit] |
| COc1cc(/C=C2\SC(=S)N(NC(=O)c3ccc(O)c(OC)c3)C2=O)ccc1O | inactive |
| Cn1cc(Cl)c(C(=O)Nc2nc3ccc(Cl)cc3s2)n1 | inconclusive [activator, full curve, poor fit] |
| O=C(O)C1CSC(c2coc3ccccc3c2=O)N1 (centres undefined) | inconclusive [activator, single point] |
| OC1(C2(O)CC(c3ccccc3)ON2)CCCCC1 (centres undefined) | inconclusive [activator, partial curve, poor fit] |
| CCOC(=O)c1cccc(NC(=O)c2cc3sccc3n2C)c1 | inconclusive [activator, partial curve, poor fit] |
| Cc1sc2nc(SCC(=O)c3cc(C)n(CC4CCCO4)c3C)n(C(C)C)c(=O)c2c1C (centres undefined) | inactive |
| CCOC(=O)c1sc(-c2ccc(OC)cc2)cc1N | inconclusive [activator, full curve, poor fit] |
| CCC(=O)OCCNc1cc(SCCC(=O)OC)c2nonc2c1[N+](=O)[O-] | inactive |
| O=C(Nc1ccon1)c1cc2c(s1)CCCC2 | inconclusive [activator, full curve, poor fit] |
| Cc1ccc(-c2noc(C3CCCCC3)n2)cc1 | inconclusive [activator, partial curve, poor fit] |
| C=CCN1/C(=C2/SC(=S)N(C)C2=O)Sc2ccccc21 | inconclusive [activator, single point] |
| CSc1ccccc1OCc1cc(C(=O)NC2CCOC2)no1 (centres undefined) | inconclusive [activator, partial curve, poor fit] |
| O=C(/C=C/c1ccccc1)c1ccc(NC2=NCCCS2)cc1 | inconclusive [activator, partial curve] |
| CNC(=O)Nc1cccc2cccnc12 | inactive |
| COc1cccc2cc(CC(=O)c3ccc(C)c(C)c3)c(=O)oc12 | inactive |
| CN(C)c1ccc(N=Nc2ccccc2C(=O)OCC(=O)NC2CCCC2)cc1 | inconclusive [activator, partial curve, poor fit] |
| CCCOc1ccc(C2/C(=C(/O)c3ccc(F)cc3)C(=O)C(=O)N2CCCN(C)C)cc1 (centres undefined) | inconclusive [activator, single point] |
| Cc1sc2ncnc(N3CCC(C(=O)Nc4cc(Cl)ccc4Cl)CC3)c2c1C | inactive |
| COc1ccc(C(=O)NC(=S)NC(C)C)cc1Br | inactive |
